The text below walks through data of the supplement of paper PMC11876631.

Changes are numbered by the printed parent chain. Names may count otherwise. ± gives the standard deviation of the averaged measurements. Laboratory Escherichia coli strains with one amino-acid change in an essential protein, pooled on minimal glucose agar with carbenicillin or gentamicin at twice the control MIC (plus kanamycin and chloramphenicol for the plasmids), 48 h. Fold change of barcode share against drug-free plates; higher = less susceptible. Active = above 20 in both replicates (the paper's putatively resistant). '<' = one read or none on drug, '>' = one read or none on a drug-free plate. Shares are relative, so most strains fall below 1 when a few take over. Listed are strains with at least 15 reads on both drug-free plates, and hits; most hits rest on fewer reference reads. Replicate rank correlation about 0.5. Edits are read from barcodes.

The data set has as its target Escherichia coli (laboratory strain). As to the kind of experiment: barcode share on antibiotic plates over drug-free plates; higher = less susceptible. The method, then: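 A pool of E. coli strains, each edited to carry one amino-acid change in an essential protein, was grown for 48 h on minimal glucose agar with or without antibiotic; strain barcodes were sequenced; mean of two replicates.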

Where [1] appears, read: antibiotic: carbenicillin, 2× MIC (3.1 µg/mL).
Where [2] appears, read: antibiotic: gentamicin, 2× MIC (MIC 0.45 µg/mL).

B1: ribC V26A (protein)
chain: MFTGIVQGTAKLVSIDEKPNFRTHVAELPDHMLDGLETGASVAHNGCCLTVTEINGNHVSFDLMKETLRITNLGDLKVGDWVNVERAAKFSDEIGGHLMSGHIMTTAEVAKILTSENNRQIWFKVQDSQLMKYILYKGFIGIDGISLTVGEVTPTRFCVHLIPETLERTTLGKKKLGARVNIEIDPQTQAVVDTVERVLAARENAMNQPGTEA
Consider B1, for which the “fold change of barcode share” value runs as follows: under setting [1], 0.11 ± 0.13; under setting [2], under 0.0152.

B2: ribC V26D (protein)
chain: B1 chain with A26D
Take B2: the “fold change of barcode share” value under setting [1] worked out at 0.27 ± 0.28 and the “fold change of barcode share” value under setting [2] was 0.353 ± 0.48.

B3: ribC V26Q (protein)
chain: B1 chain with A26Q
For the protein B3, the “fold change of barcode share” value runs as follows: under setting [1], 0.177 ± 0.027; under setting [2], under 0.00517.

B4: pyrH V132W (protein)
chain: MATNAKPVYKRILLKLSGEALQGTEGFGIDASILDRMAQEIKELVELGIQVGVVIGGGNLFRGAGLAKAGMNRVVGDHMGMLATVMNGLAMRDALHRAYVNARLMSAIPLNGVCDSYSWAEAISLLRNNRVWILSAGTGNPFFTTDSAACLRGIEIEADVVLKATKVDGVFTADPAKDPTATMYEQLTYSEVLEKELKVMDLAAFTLARDHKLPIRVFNMNKPGALRRVVMGEKEGTLITE
As for B4, the “fold change of barcode share” value is, setting by setting: under setting [1], 0.309 ± 0.11; under setting [2], 0.0161 ± 0.0011.

B5: pyrH F218W (protein)
chain: B4 chain with W132V, F218W
As to B5, the “fold change of barcode share” value under setting [1] was 0.339 ± 0.25 and the “fold change of barcode share” value under setting [2] is 0.00791 ± 0.001.

B6: pyrH F218A (protein)
chain: B4 chain with W132V, F218A
For the protein B6, the “fold change of barcode share” value reads like this: under setting [1], 0.275 ± 0.2; under setting [2], under 0.00602.

B7: pyrH V132P (protein)
chain: B4 chain with W132P
As to B7, the “fold change of barcode share” value is, setting by setting: under setting [1], 2.1 ± 2; under setting [2], 0.024 ± 0.021.

B8: ribD V97D (protein)
chain: MQDEYYMARALKLAQRGRFTTHPNPNVGCVIVKDGEIVGEGYHQRAGEPHAEVHALRMAGEKAKGATAYVTLEPCSHHGRTPPCCDALIAAGVARVDASMQDPNPQVAGRGLYRLQQAGIDVSHGLMMSEAEQLNKGFLKRMRTGFPYIQLKLGASLDGRTAMASGESQWITSPQARRDVQLLRAQSHAILTSSATVLADDPALTVRWSELDEQTQALYPQQNLRQPIRIVIDSQNRVTPVHRIVQQPGETWFARTQEDSREWPETVRTLLIPEHKGHLDLVVLMMQLGKQQINSIWVEAGPTLAGALLQAGLVDELIVYIAPKLLGSDARGLCTLPGLEKLADAPQFKFKEIRHVGPDVCLHLVGA
For the protein B8, the “fold change of barcode share” value under setting [1] amounted to 0.236 ± 0.098 and the “fold change of barcode share” value under setting [2] was under 0.00592.

B9: ribD L364A (protein)
chain: B8 chain with D97V, L364A
As for B9, the “fold change of barcode share” value runs as follows: under setting [1], 0.3115 ± 0.0014; under setting [2], 11.5 ± 10.

B10: ribA L47A (protein)
chain: MQLKRVAEAKLPTPWGDFLMVGFEELATGHDHVALVYGDISGHTPVAARVHSECLTGDALFSLRCDCGFQLEAALTQIAEEGRGILLYHRQEGRNIGLLNKIRAYALQDQGYDTVEANHQLGFAADERDFTLCADMFKLLGVNEVRLLTNNPKKVEILTEAGINIVERVPLIVGRNPNNEHYLDTKAEKMGHLLNK
With B10, the “fold change of barcode share” value reads like this: under setting [1], 0.399 ± 0.31; under setting [2], under 0.00408.

B11: ribA L47Q (protein)
chain: B10 chain with A47Q
Consider B11, for which the “fold change of barcode share” value was 0.219 ± 0.062 under setting [1] and under 0.0065 under setting [2].

B12: ribA F137A (protein)
chain: B10 chain with A47L, F137A
Take B12: the “fold change of barcode share” value runs as follows: under setting [1], 0.257 ± 0.0035; under setting [2], under 0.0173.

B13: ribA M136Q (protein)
chain: B10 chain with A47L, M136Q
For the protein B13, the “fold change of barcode share” value under setting [1] worked out at 0.323 ± 0.08.

B14: ribA F137W (protein)
chain: B10 chain with A47L, F137W
Turning to B14, the “fold change of barcode share” value by setting is: under setting [1], 0.326 ± 0.015; under setting [2], under 0.0152.

B15: ribA L47W (protein)
chain: B10 chain with A47W
B15: the “fold change of barcode share” value by setting is: under setting [1], 0.323 ± 0.17; under setting [2], 0.011 ± 0.0068.

B16: ribA L47D (protein)
chain: B10 chain with A47D
With B16, the “fold change of barcode share” value under setting [1] worked out at 0.318 ± 0.057.

B17: ribA M136A (protein)
chain: B10 chain with A47L, M136A
On to B17, for which the “fold change of barcode share” value is, setting by setting: under setting [1], 0.334 ± 0.11; under setting [2], 0.023 ± 0.02.

B18: ribA L47P (protein)
chain: B10 chain with A47P
For B18, the “fold change of barcode share” value runs as follows: under setting [1], 0.199 ± 0.039; under setting [2], under 0.00569.
